{
  "source": "paper PMC3314181",
  "about": "(Cellular and Molecular Life Sciences: CMLS, 2011)",
  "proteins": {"B1": {"name": "APP695 with C-terminal myc tag followed by the KKAA ER retention motif (natural protein)", "chain": "not shown"}},
  "biological_target": "the molecule itself",
  "assay": "SDS-PAGE without heat denaturation and Western blot",
  "data": [
    {"protein": "B1", "values": [
      {"measurement": "fold increase of dimers with brefeldin A (10–30 μg/ml, 1 h) over vehicle", "result": 2, "unit": "fold"}
    ]}
  ]
}
